# Test results reported in the supplement of paper PMC3334620.
# Over roughly 33,000 sequences, “E-score (-0.5 to 0.5)” has its median near -0.035; the highest 2% begin near 0.34. Some of the results follow.
# Molecular target: T1, Mot3 (UniProt P54785)
# T1 sequence: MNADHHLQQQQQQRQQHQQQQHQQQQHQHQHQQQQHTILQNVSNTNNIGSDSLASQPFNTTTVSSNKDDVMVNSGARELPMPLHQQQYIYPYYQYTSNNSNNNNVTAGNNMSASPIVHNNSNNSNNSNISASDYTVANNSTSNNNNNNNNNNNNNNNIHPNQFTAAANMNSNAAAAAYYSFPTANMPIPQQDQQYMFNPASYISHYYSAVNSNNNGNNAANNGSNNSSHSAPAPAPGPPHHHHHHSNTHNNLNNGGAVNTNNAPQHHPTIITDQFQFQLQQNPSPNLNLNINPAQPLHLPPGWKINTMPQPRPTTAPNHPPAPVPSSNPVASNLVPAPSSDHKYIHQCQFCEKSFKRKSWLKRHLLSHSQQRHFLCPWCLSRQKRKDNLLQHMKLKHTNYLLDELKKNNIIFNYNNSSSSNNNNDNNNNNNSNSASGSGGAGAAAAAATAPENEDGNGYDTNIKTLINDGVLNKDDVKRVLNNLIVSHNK
# Test: PBM E-score (8-mer binding enrichment) (E-score (-0.5 to 0.5)); higher = stronger / more preferred TF binding; most listed sequences are background and not binding sites
# Conditions: protein concentration: 200 nM; construct: GST-full length
# Procedure, shortened: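 Yeast transcription factors carrying a GST tag, as full-length proteins or DNA-binding domains, were produced by PURExpress in vitro transcription/translation. About 100-200 nM protein was applied to universal all-10-mer Agilent arrays, double-stranded by primer extension on fresh or once-stripped slides. Bound protein was detected with fluorescent anti-GST, and scans were normalised with masliner. The Universal PBM Analysis Suite gave each ungapped eight-base word, pooled with its reverse complement, an E-score, a modified Wilcoxon-Mann-Whitney statistic.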
row,Sequence,PBM E-score
1,TGCATTAA,0.115
2,TCTTACCA,-0.0433
3,GCGGCGGA,-0.126
4,GAGCTATC,-0.176
5,CCTTATGC,-0.0846
6,ATGACTGG,-0.187
7,CCGTCCCG,-0.264
8,ACTTACCA,-0.0176
9,CCTTGGGA,-0.179
10,AGTCGAGG,-0.133
11,TAATAGAA,0.221
12,CGGGCTAA,-0.149
13,ACCCCGAC,-0.234
14,AATCCCTA,-0.0653
15,AGGGCTAG,-0.266
16,ACTATCCT,-0.243
17,AGCCTGGA,-0.277
18,GAACGAAC,-0.0739
19,AAAGTCCA,-0.091
20,ATATAGAA,0.11
21,GTAGACTA,-0.0363
22,AGGGTCAG,-0.207
23,AGACAGAC,0.00927
24,CTCAACTA,0.0353
25,GACATTAC,0.133

row,Sequence,PBM E-score
1,AGGCCGAA,-0.138
2,ATGATGAA,0.0122
3,GGCGATAA,-0.239
4,CACATCCC,-0.0312
5,AGAAGCAG,-0.0902
6,CATAGTGG,-0.0206
7,AGATCGTC,-0.179
8,TATCGCGA,-0.0761
9,ACCAACTG,-0.14
10,ACAAGGTG,0.135
11,GACGAGGA,-0.0975
12,CTCTGGTA,-0.106
13,AGCCGTGG,-0.137
14,GATACAAC,0.0758
15,ATTTACGG,0.132
16,GACTCAAC,0.0921
17,ATTTTGAA,-0.00196
18,AGCAGATA,-0.23
19,CTTGCATA,-0.0488
20,CACCGTCG,-0.113
21,TGCATGAA,0.0432
22,CCACTAAC,0.0767
23,CCATTTAC,0.204
24,ATTTAGCC,0.00989
25,ACCCAGCG,-0.0802

row,Sequence,PBM E-score
1,AAGGGATT,-0.123
2,ACTGAGGA,-0.0208
3,AAAGAGGT,0.0391
4,ACCACTAT,-0.121
5,CGGCACGC,-0.0562
6,TAGCGGAA,-0.15
7,ATCCACTG,-0.103
8,ACAGCTAG,-0.0713
9,ACCTTGCT,-0.0444
10,ATATGGAT,0.0348
11,CTGTCTTC,-0.161
12,CAAAGCAC,-0.122
13,ACTTCGGG,-0.134
14,AAAGTCCC,-0.165
15,GGGGATCA,-0.33
16,GATAGAGC,-0.0653
17,CGTGGGAA,-0.208
18,GTATTAAC,0.303
19,TGCCAAAA,-0.0739
20,AAAGTTCA,0.0418
21,ACTTTACG,0.138
22,AAATTATT,0.111
23,AAGTAGAC,-0.161
24,CCCGAATA,-0.0992
25,GGGCTTGA,-0.21

row,Sequence,PBM E-score
1,CCAATTGC,-0.0845
2,ACACAGGG,0.213
3,TTCAACAA,0.229
4,CCAACTAG,0.0134
5,GCCGAACA,-0.0546
6,CATGGCAA,-0.0714
7,AACCTGAA,-0.0539
8,TGCTGTAA,0.176
9,CAAGACGA,0.00326
10,CTGGCGGC,-0.179
11,ACGTTGAT,0.203
12,AGTGTGCA,0.0627
13,GTAGCGTA,0.105
14,ATCGCTCA,-0.264
15,ATTCGATG,-0.0704
16,ATGACATA,0.197
17,CCGACCGG,-0.28
18,CGATGCAA,-0.2
19,ATTTGAGC,-0.0824
20,ACAGCCCA,-0.0365
21,CATAGGTA,0.227
22,AAGAACAC,0.213
23,AAATTGTG,0.119
24,AAGGCTGA,-0.222
25,ACCGAACT,-0.17

row,Sequence,PBM E-score
1,CTGGTTTC,-0.18
2,AGCACAAC,0.183
3,AGATGCAG,-0.0299
4,AATTATCT,-0.0807
5,CTCTTATA,-0.039
6,TCAATGGA,-0.13
7,ATACTTTG,-0.0228
8,GGTCGTGA,-0.173
9,GAGAACCC,-0.275
10,GACCCCAC,-0.0508
11,ACCTGACC,-0.112
12,AAAAACAC,0.231
13,CAGTGCAC,-0.168
14,GACGCCTA,0.0222
15,CCAGTGAA,-0.0706
16,CCGCGGCG,-0.253
17,ACTTCATC,-0.234
18,GAAGGTAC,0.438
19,AGGTCGTG,0.0505
20,CGATTGTC,0.0508
21,CAAAAGCC,-0.0126
22,AATACAGC,0.0486
23,CTGATCGA,-0.258
24,TCCCCAAA,0.043
25,CACGCTGA,0.0122

row,Sequence,PBM E-score
1,CAGCGCAG,-0.0869
2,CAAGACCC,0.0564
3,AAGACTCG,-0.193
4,CTGCATAA,0.0625
5,AAAGCCTT,-0.122
6,CGTGATAA,0.0869
7,GAGGCCAC,-0.0216
8,AGTTCACC,-0.0303
9,GTTTGGTA,0.00728
10,CCTCACAG,-0.131
11,ATTCTTCG,0.0141
12,CAATGATA,-0.0592
13,AGGCCACA,0.142
14,ATCCCTCG,-0.225
15,AGGTAATA,0.318
16,GTGGCCCA,-0.262
17,CGTTTTCA,0.216
18,GTGTTCGA,0.0206
19,AAACGTCC,-0.019
20,CCGCCCCG,-0.0988
21,ATAAAATA,0.141
22,CTGGTGGC,-0.263
23,CGCTAGTA,0.00136
24,GATGTCGC,-0.0384
25,CTCATACC,-0.11

row,Sequence,PBM E-score
1,GATTGGGA,-0.156
2,GCTCAAAC,-0.0243
3,GCGAGCAC,-0.228
4,AGTCGCAT,-0.0595
5,ATTATGAA,-0.0267
6,AATCTCAG,-0.103
7,GCTTCACA,0.0685
8,ACTTCTTG,-0.113
9,GAACGGTA,0.0291
10,AGGTGGAC,-0.183
11,GTTCCGCA,-0.0704
12,CGTGAATC,0.146
13,GGTCCAGA,-0.0101
14,ATCTTGAC,-0.15
15,AGGGGTTC,-0.0123
16,AATTGGCA,-0.121
17,CCAGTACA,0.208
18,CGCTCACG,-0.202
19,AAGTAGAT,0.0926
20,ACGATGCG,-0.014
21,GCGGCTAC,-0.116
22,CGTCTACC,-0.0996
23,ACTGCCTG,0.0753
24,ACGTGAAT,0.165
25,AACGTACG,0.0824

row,Sequence,PBM E-score
1,CCAGTGCC,0.0815
2,AGCCGTAT,0.0468
3,GACCGGCC,-0.394
4,ATTTTGCA,0.0729
5,GAGGCAGA,-0.164
6,CAATTAAC,0.155
7,CCCGCCGG,-0.202
8,ACGTAGTC,0.0571
9,CCGCGCAC,-0.0861
10,AATCAAAA,0.026
11,AAATTAGT,0.125
12,AAAAGCCG,-0.232
13,ACGCAGCC,0.0872
14,AGCGGAAG,-0.241
15,AGAGATAT,-0.0187
16,AATTTTCC,0.146
17,GAGTGCAC,-0.113
18,AGTGAAGA,-0.0753
19,GACAACAA,0.154
20,CAGATTAG,-0.134
21,AAAGAACA,0.223
22,CTGTTGTA,0.162
23,TAACTTCA,0.194
24,GGGAGCCC,-0.238
25,AACATTTA,0.244

row,Sequence,PBM E-score
1,AGCCATGA,-0.177
2,GCCGGCGA,-0.234
3,CCTATAAA,0.127
4,CGGGAAAA,-0.0172
5,GGATACTA,-0.132
6,GAACGTTA,-0.029
7,ACACAGGC,0.354
8,GGAACCAA,0.038
9,GATCCCCC,-0.356
10,AAGAGTGG,-0.279
11,CCGTCCAG,-0.298
12,GTGCCATA,-0.141
13,GATGATGC,-0.251
14,GCTAAGCC,-0.224
15,CCGCGTAG,0.216
16,TAACGCAA,0.2
17,GCGCAACC,-0.274
18,CGCAACAC,0.151
19,CATTACGG,0.0231
